Measured values reported in PubChem BioAssay AID1465 (SRMLSC, 2008).
Hit rate of the full screen: of about 220,000 compounds, about 160 (0.073%) were called active. This list was built around the results that the source calls inconclusive (neither active nor inactive); the mix of calls is not that of the screen.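 The calls were made as follows: active = fold induction of absorbance versus untreated yeast above a set limit, then at least 30% activation at any dose in follow-up; inconclusive = repeats straddling the limit, or above it without dose testing; inactive = fold induction below the set limit.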

Experiment: enhancers of respiration in Yfh1-depleted yeast, dose response, Friedreich's ataxia, plus single-dose screen (AID 1465)
Conditions: S. cerevisiae Yfh1-off respiration, WST-1 reduction, 72 h; at 50 µM; stronger effect = higher value

Structure (SMILES) | fold induction
c1csc(-c2nnsc2-c2nc3ccccc3[nH]2)c1 | inconclusive: 1.61
OC(COc1ccc2ccccc2c1)CN1CCN(c2ccc(F)cc2)CC1 (configuration not stated) | inactive: 0.93
COc1ccc(-c2nncnn2)cc1 | inconclusive: 3.65
Cc1ccc(-c2cc(C(=O)NCCc3ccc(S(N)(=O)=O)cc3)c3ccccc3n2)cc1 | inconclusive: 1.34
COc1ccccc1-c1cc(C(=O)N/N=C/C=C/c2ccccc2[N+](=O)[O-])c2ccccc2n1 | inconclusive: 1.23
Cc1ccc(CN2C(=O)CNC2=S)cc1 | inconclusive: 1.35
O=C(/C=C/c1cn(CC(O)CN2CCCCC2)c2ccccc12)c1cccs1 (configuration not stated) | inconclusive: 1.34
COc1ccc2[nH]cc(C(=O)CCl)c2c1 | inconclusive: 1.55
COc1ccc(CN2C3CCCC2CC(NC(=O)Nc2cccc(C)c2)C3)cc1 (configuration not stated) | inactive: 0.96
Cc1cc(C(=O)Nc2nc3c(C)cccc3s2)c(C)o1 | inconclusive: 1.17
CO/N=C/c1ccc(N2CCN(C(=O)c3ccc(F)cc3)CC2)c([N+](=O)[O-])c1 | inactive: 0.84
CC(C)C(=O)NC(c1ccccc1)c1cc([N+](=O)[O-])c2cccnc2c1O (configuration not stated) | inactive: 0.98
CC(C)N(C(=O)Nc1ccc2nsnc2c1)C(C)C | inconclusive: 1.35
CC(=O)N1CC[n+]2c(-c3ccc(Cl)cc3Cl)csc21 | inconclusive: 1.33
Cc1nnc(-c2ccccc2)c(=O)n1/N=C/c1c(O)ccc2ccccc12 | inconclusive: 1.89
COc1cc(C2C3=C(CCCC3=O)Nc3[nH]n(-c4ccccc4)c(=O)c32)ccc1O (configuration not stated) | inconclusive: 1.49
Cc1cc(C)c2c(N)c(C(=O)c3ccc(Cl)cc3)sc2n1 | inconclusive: 1.34
O=C(CSc1nc(-c2ccc(F)cc2)cc(C(F)(F)F)n1)Nc1ccc2c(c1)OCO2 | inactive: 0.96
CCCCC(C)n1[nH]c(=O)c2c(C)cc(C)nc21 (configuration not stated) | inconclusive: 1.35

Structure (SMILES) | fold induction
CCOC(=O)Cc1cc(=O)n(-c2nc3ccccc3s2)[nH]1 | inconclusive: 1.25
COc1ccc(OC)c(C2C(C#N)=C(N)Oc3cc(N)ccc32)c1 (configuration not stated) | inconclusive: 1.33
COC(=O)Cc1cc(=O)n(-c2nc3ccccc3[nH]2)[nH]1 | inconclusive: 1.64
CCOc1cc(/C=C2/NC(=O)N(CC(=O)Nc3cccc(C)c3)C2=O)ccc1OC | inconclusive: 1.19
COc1ccc(-c2nn(-c3ccccc3)cc2C(=O)Nc2nc(CC(C)=O)ns2)cc1 | inconclusive: 1.11
O=C(c1cc2c(s1)CCCC2)N1CCN(S(=O)(=O)c2ccccc2C(F)(F)F)CC1 | inactive: 0.91
O=C1CSC(=S)N1/N=C/c1ccc(O)c(O)c1O | inconclusive: 1.35
O=C(CCCn1nnc2ccccc2c1=O)N[C@H](C(=O)O)c1ccccc1 | inactive: 1.02
COc1cc(/C=N/NC(=O)c2ccc(C)nc2)cc([N+](=O)[O-])c1O | inactive: 1.21
O=C(Nc1ccccc1-c1nc2ccccc2[nH]1)c1ccc(N2C(=O)CCC2=O)cc1 | inactive: 1.11
O=C(COc1ccccc1O)c1cccs1 | inconclusive: 1.34
Cc1ccc2c(c1)NC(=O)C(N1CCOCC1)(C(F)(F)F)O2 (configuration not stated) | inconclusive: 1.15
O=C1CNC(=O)N1CC(=O)N1CCCc2ccccc21 | inactive: 1.04
CCC(c1nnnn1CCc1ccccc1)N(Cc1ccco1)Cc1cc2c(C)ccc(C)c2[nH]c1=O (configuration not stated) | inconclusive: 1.14
COC(=O)c1cc2c(ccn2-c2ccc(F)cc2)n1Cc1ccc(C#N)cc1 | inactive: 1.03
N#C/C(=C\C1=C(N2CCOCC2)C(=C/c2cccc([N+](=O)[O-])c2)/CC1)C(=O)Nc1ccccc1F | inconclusive: 1.4
CCOc1ccccc1Nc1nnc(SCC(=O)Nc2cccc(S(=O)(=O)NC3=NCCCCC3)c2)s1 | inconclusive: 1.34
CCC(C)(C)NC(=O)C(c1ccc(C)o1)N(Cc1cccs1)C(=O)Cn1nnc2ccccc21 (configuration not stated) | inconclusive: 1.17
CC(C)C(C(=O)O)N1C(=O)/C(=C/c2cccn2C)SC1=S (configuration not stated) | inconclusive: 2.88

Structure (SMILES) | fold induction
O=C1c2ccccc2NC(c2ccc(-c3cccc([N+](=O)[O-])c3)o2)N1O (configuration not stated) | inactive: 0.9
Cc1ccccc1-c1nc(CN2CCSCC2)c(C)o1 | inactive: 1.04
Nc1nonc1-n1nnc(C(=O)N/N=C/c2ccc(Br)cc2)c1CSC1=NCCS1 | inconclusive: 1.33
O=C(O)c1cccc(NC(=S)N/N=C/c2cccnc2)c1 | inactive: 0.98
COc1ccc(OC)c(NC(=O)c2cnc(Nc3ccccc3OC)c3ccccc23)c1 | inconclusive: 1.33
CCN(CC)c1ccc(/C=N/NC(=O)c2cccc(S(=O)(=O)Nc3ccccc3OC)c2)cc1 | inactive: 1.14
CC1CCN(c2ccccc2NC(=S)NC(=O)c2cccs2)CC1 | inconclusive: 1.26
COc1ccc(OC)c(NC(=S)NCCC(c2ccccc2)c2ccccc2)c1 | inconclusive: 1.49
Cc1cc(C)nc(SCC(=O)c2cc3ccccc3oc2=O)n1 | inactive: 1.02
Cc1ccccc1NC(=S)NCCc1c[nH]c2ccccc12 | inconclusive: 1.35
Cn1c(SCC(=O)Nc2ccc(Br)cc2)nc(O)cc1=O | inconclusive: 1.34
O=C(NNc1nc2cc3c(cc2s1)OCCO3)c1ccc(F)cc1 | inconclusive: 1.33
COCCCn1c(SCc2nnc(-c3ccc(OC)c(OC)c3)o2)nnc1-c1ccncc1 | inactive: 1.13
COc1ccccc1-c1cc(C(F)(F)F)nc(S(=O)(=O)CCCC(=O)NCc2ccc(F)cc2)n1 | inconclusive: 1.33
COC(=O)c1ccc(NC(=O)NC2CCCCC2)cc1 | inconclusive: 1.33
Cc1ccc(S(=O)(=O)NCC(=O)OCc2ccccc2)cc1 | inactive: 0.97
CNC1=C(N(C(C)=O)c2ccc(Br)cc2)C(=O)c2ccccc2C1=O | inconclusive: 1.34
Cc1ccc(C)c(NC(=S)NCc2ccc3c(c2)OCO3)c1 | inconclusive: 1.2
COC(=O)N/N=C/c1cc(OC)c(O)c([N+](=O)[O-])c1 | inactive: 1.19
